# Measurements from PubChem BioAssay AID588855 (National Center for Advancing Translational Sciences (NCATS), 2011).
# Among all 410,000 compounds or so, about 5,000 (1.2%) were called active. This list was built around the results that the source calls inconclusive (neither active nor inactive); the mix of calls is not that of the screen. Calls come from the whole dose curve; as a rule, active = well fitted inhibition curve with a large enough effect; inconclusive = small, poorly fitted or top-dose-only effect; inactive = no such curve, though single readings can be large or run the other way. Where the call is inconclusive, the potency comes from a doubtful curve fit.
# Experiment: qHTS for Inhibitors of TGF-b; note: nearly all actives have a fitted effect of over 65% in size
# Settings: HepG2 CAGA-GFP TGF-b/SMAD3 reporter, GFP fluorescence, 18 h, TGF-beta stimulated, 500 pg/mL final; series mostly up to 46.1 µM
# In short: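 Per well, imaged GFP fluorescence of HEPG2 CAGA-GFP cells gives the signal; cells get compound, then TGF-beta (500 pg/mL final), 18 h at 37 degrees C; %Activity versus -TGF-beta and +DMSO controls.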
# Potency is the fitted concentration of half-maximal effect; tags give direction and shape of the fitted curve.
row,Structure (SMILES),Potency
1,CCCN(Cc1nc2cc(Cl)ccc2c(=O)[nH]1)C(=O)c1ccc(S(=O)(=O)N2CCCC2)cc1,"inconclusive: 35.5 µM [inhibitor, single point]"
2,O=C(COc1ccccc1)NNc1c2ccccc2nc2ccccc12,"inconclusive: 17.8 µM [inhibitor, partial curve, poor fit]"
3,CCOC(=O)N1CCc2c(sc3c2C(=O)NC(c2ccccc2)N3)C1 (configuration not stated),"inconclusive: 0.447 µM [inhibitor, full curve, poor fit]"
4,COc1cccc([C@@H]2Nc3ccc(C(=O)O)cc3[C@@H]3C=CC[C@@H]32)c1OC,"inconclusive: 0.199 µM [inhibitor, full curve, poor fit]"
5,N#CC1(NC(=O)Cn2ncc(Cl)c(Cl)c2=O)CCCCC1,inactive
6,CCCCCn1c(CCNC(=O)CCC)nc2ccccc21,inactive
7,CN(C)c1cccc(C(=O)n2cc(C(=O)c3cc(F)ccc3O)cn2)c1,inactive
8,CS(=O)(=O)N1CCN(c2ccc(NC(=O)c3ccc([N+](=O)[O-])o3)cc2)CC1,active: 3.98 µM
9,N#Cc1nc(-c2cccs2)oc1NCc1ccccc1Cl,"inconclusive: 14.1 µM [inhibitor, single point]"
10,COc1ccc(OC)c2c(/C=C/c3c[nH]c4ccccc34)ccnc12,"inconclusive: 35.5 µM [inhibitor, single point]"
11,O=C(NC1CC1)c1ccc(Cn2c(SCc3ccccc3F)nc3cccnc32)cc1,"inconclusive: 35.5 µM [inhibitor, partial curve, poor fit]"
12,Cc1cccc(OP(=O)(Nc2c(C)n(C)n(-c3ccccc3)c2=O)Oc2cccc(C)c2)c1,"inconclusive: 35.5 µM [inhibitor, single point]"
13,O=C(NC1CCCCC1)c1ccc2c(c1)S(=O)(=O)c1ccccc1C2=O,"inconclusive: 31.6 µM [inhibitor, single point]"
14,Cc1cccc(-c2nnc(SCC(=O)c3ccc(O)cc3O)n2C)c1,inactive
15,COc1cccc2c(N/N=C/c3ccccc3)cc(C)nc12,inactive
16,O=C1C(=O)N(Cc2cccnc2)C(c2cccc([N+](=O)[O-])c2)/C1=C(/O)c1ccc2c(c1)OCO2 (configuration not stated),"inconclusive: 35.5 µM [inhibitor, single point]"
17,CNc1cncc(-c2cccnc2)n1,inactive
18,Cc1cccc(C)c1OCc1cc(C(=O)N(Cc2c(C)nn(C)c2C)C2CC2)no1,"inconclusive: 10 µM [inhibitor, partial curve]"
19,CC(C)CCNC(=O)CCSCCC(=O)NCCC(C)C,"inconclusive: 12.6 µM [inhibitor, single point]"
20,CSc1cccc(NC(=O)c2cc(S(=O)(=O)N3CCc4ccccc43)cn2C)c1,inactive
21,COc1cccc(-c2nnc3n(CCc4ccccc4)c(=O)c4ccccc4n23)c1O,"inconclusive: 35.5 µM [inhibitor, single point]"

row,Structure (SMILES),Potency
1,O=S(=O)(NCc1ccc2c(c1)OCO2)c1ccc2oc3ccccc3c2c1,"inconclusive: 35.5 µM [inhibitor, partial curve, poor fit]"
2,CC[n+]1cccc(-c2nc3ccccc3s2)c1,inactive
3,CC1=C(C(=O)OCc2ccc3nsnc3c2)N2C(=O)[C@@H](NC(=O)OCc3ccc4nsnc4c3)[C@H]2SC1,"inconclusive: 3.98 µM [inhibitor, full curve]"
4,CC(C)Oc1ccc(Cc2cnc(N)nc2N)cc1,"inconclusive: 0.708 µM [inhibitor, full curve, poor fit]"
5,Cc1ccc(NC(=O)c2nc(S(=O)(=O)Cc3ccccc3F)ncc2Cl)cc1,"inconclusive: 10 µM [inhibitor, partial curve, poor fit]"
6,COc1cccc(CNC(=O)CN(c2ccc(C(C)C)cc2)S(=O)(=O)c2c(C)n[nH]c2C)c1,active: 15.8 µM
7,Cc1ccc(OCc2nnc(SCc3ccc(C#N)cc3)n2-c2ccc(C)cc2)cc1,"inconclusive: 22.4 µM [inhibitor, single point]"
8,CNC(=O)c1cccc(NC(=O)c2cc(-c3ccccc3)nc3c2cnn3C(C)C)c1,"inconclusive: 35.5 µM [inhibitor, single point]"
9,CCCCOc1ccc(N(CC(=O)NC2CCCCC2)C(=O)CCC(=O)Nc2ccccn2)cc1,inactive
10,CCOC(=O)c1c(N2C(=O)Nc3cc(Cl)c(Cl)cc3N2O)sc2c1CCCCC2,"inconclusive: 35.5 µM [inhibitor, single point]"
11,CC(NC(=S)NC1CCC(C(C)(C)C)CC1)c1ccccc1 (configuration not stated),"inconclusive: 14.1 µM [inhibitor, single point]"
12,Cc1cccc(Cn2c(SCc3ccc(C(=O)NCCc4ccccc4)cc3)nc3cccnc32)c1,"inconclusive: 2 µM [inhibitor, partial curve, poor fit]"
13,CCOc1ccc(S(=O)(=O)n2cnc3cc(C)c(C)cc32)cc1,"inconclusive: 1 µM [inhibitor, full curve]"
14,COc1cccc(NC(=O)CN(C)C(=O)c2ccc(NC3CC3)c([N+](=O)[O-])c2)c1,inactive
15,O=C(C[n+]1cc[nH]c1)c1ccc(Cl)cc1,inactive
16,COc1cccc(N2CCN(C(=O)Cn3cnc4onc(-c5ccc(F)cc5)c4c3=O)CC2)c1,"inconclusive: 11.2 µM [inhibitor, single point]"
17,Nc1nc(Cl)cc(N2CCC(c3cc(-c4ccc(Cl)cc4Cl)n[nH]3)CC2)n1,"inconclusive: 10 µM [inhibitor, partial curve, poor fit]"
18,CCc1nn(CC(=O)N2CCN(c3cccc(C(F)(F)F)c3)CC2)c(=O)c2cc3occc3n12,"inconclusive: 5.01 µM [inhibitor, full curve, poor fit]"
19,CC(C)C[C@H](NC(=O)N1CCn2c1nc1ccccc12)C(=O)N1CCCCC1,"inconclusive: 35.5 µM [inhibitor, single point]"
20,Cn1cc(S(=O)(=O)N2CCCC2)cc1C(=O)Nc1ccc(C(F)(F)F)cc1,"inconclusive: 7.94 µM [inhibitor, partial curve, poor fit]"
21,COc1ccccc1-c1nnc(C2CCN(S(=O)(=O)c3ccccc3)CC2)o1,"inconclusive: 7.94 µM [inhibitor, partial curve, poor fit]"
